Where a name gives a salt, the structure may show the parent alone. ± gives the standard deviation of the averaged measurements. The full ranking holds about 2,600 compounds; the median of “total cell number (DAPI+ nuclei) relative to DMSO vehicle control” is about -1.4, and the lowest 2% start at about -23. This is one part of the list.

For the test, the system named is jimpy (Plp1 jimpy) mouse iPSC-derived oligodendrocyte progenitor cells. The experiment in a line: total cell number (DAPI+ nuclei) relative to DMSO vehicle control (SDs above negative control mean); higher = more surviving cells. Conditions: 10 µM; 3 days.
Take `OC(CN1CCN(c2cccc(Cl)c2)CC1)C(c1ccccc1)c1ccccc1` (stereo not drawn): the total cell number was -3.86.

For the compound `COc1cc(OC)c(/C=C/S(=O)(=O)Cc2ccc(OC)c(NCC(=O)O)c2)c(OC)c1`, the total cell number is -13.9. As for `CN(C)[C@@H]1C(O)=C(C(N)=O)C(=O)[C@@]2(O)C(O)=C3C(=O)c4c(O)cccc4[C@@](C)(O)[C@H]3[C@H](O)[C@@H]12` [Oxytetracycline (Terramycin)], the total cell number worked out at 1.13. Compound `NC1C=CC=C(C(=O)O)C1` (stereo not drawn) [Gabaculine hydrochloride] yielded a total cell number of 0.602. For `CC(C)(Sc1ccc(CCN(CCCCC2CCCCC2)C(=O)NC2CCCCC2)cc1)C(=O)O` the value was -1.49; for `CSc1ccc2c(c1)N(CCC1CCCCN1C)c1ccccc1S2` (stereo not drawn) [Thioridazine hydrochloride], -6.49. Consider `Nc1nc(OCc2ccccc2)c2nc[nH]c2n1` [O6-benzylguanine], for which the total cell number was -3.83.

The compound `CC1=C(/C=C/C(C)=C/C=C/C(C)=C\C(=O)O)C(C)(C)CCC1` [Isotretinoin] gave a total cell number of -3.31. Consider `CC1=C(/C=C/C(C)=C/C=C/C(C)=C\C(=O)O)C(C)(C)CCC1` [13-cis-retinoic acid], for which the total cell number is -2.92. In turn, `CC/C(=C(/CC)c1ccc(O)cc1)c1ccc(O)cc1` [Diethylstilbestrol] returned a total cell number of 0.384. As to `NC(N)=Nc1nc(CSCC/C(N)=N/S(N)(=O)=O)cs1` [Famotidine], the total cell number was -0.923 ± 0.22. Compound `CC[N+](CC)(CC)CC(=O)Nc1c(C)cccc1C` [Lidocaine N-ethyl bromide quaternary salt] showed a total cell number of -0.573. For `Cc1ccc([N+](=O)[O-])cc1S(=O)(=O)N(C)/N=C/c1cnc2ccc(Br)cn12`, the total cell number was -25.8.

`COc1cc(NC(C)CCCN)c2ncccc2c1` (stereo not drawn) [Primaquine Diphosphate]: the total cell number is -13.1. In turn, `COCCOc1cc2ncnc(Cl)c2cc1OCCOC` came in with a total cell number of -0.904. `CC(=O)CC/C=C(\C)CC/C=C(\C)CC/C=C(\C)CCC=C(C)C` [Geranylgeranylacetone]: the total cell number amounted to 0.798. In turn, `C=CCn1c(=O)c2c(nc(-c3ccc(S(=O)(=O)O)cc3)n2C)n(C)c1=O` [1-Allyl-3,7-dimethyl-8-p-sulfophenylxanthine] came in with a total cell number of -0.241. The compound `Cc1ccc(S(=O)(=O)NC(=O)NN2CCCCCC2)cc1` [Tolazamide] returned a total cell number of -0.733. With `CCCN(CCc1ccccc1)C1CCc2c(O)cccc2C1` (racemic) [(±)-PPHT hydrochloride], the total cell number was -2.84. In the case of `CN1CCN(c2c(F)cc3c(=O)c(C(=O)O)cn4c3c2OCN4C)CC1` [Marbofloxacin], the total cell number amounted to 2.46. Regarding `COc1ccc(CCNc2nc(N3CCc4cc(OC)c(OC)cc4C3)c3cc(OC)c(OC)cc3n2)cc1OC`, the total cell number is -11.2. As for `CCCCCCCCCCCCc1ccc(S(=O)(=O)Nc2nncs2)cc1`, the figure is 1.21; as for `CCN(CC)CCOC(=O)C(c1ccccc1)c1ccccc1` [Adiphenine HCl], 0.0625; as for `C[C@H]1[C@H](C)CC[C@]2(C(=O)O)CC[C@]3(C)C(=CC[C@@H]4[C@@]5(C)C[C@@H](O)[C@H](O)[C@@](C)(CO)[C@@H]5CC[C@]43C)[C@H]12` [Asiatic Acid], 0.335. As to `CCOC(=O)c1ccc(N)cc1` [Benzocaine], the total cell number was -1.12. In turn, `CC(C)C[C@H](C(=O)O)c1cc(-c2ccc(C(F)(F)F)cc2)cc(-c2ccc(C(F)(F)F)cc2)c1` returned a total cell number of 10.7. The compound `Nc1cc(F)ccc1NC(=O)/C=C/c1cnn(C/C=C/c2ccccc2)c1` came in with a total cell number of -12.1. Compound `CN(Cc1cnc2nc(N)nc(N)c2n1)c1ccc(C(=O)N[C@@H](CCC(=O)O)C(=O)O)cc1` [Methotrexate] had a total cell number of -5.68.

As to `CCOc1ccc2nc3cc(N)ccc3c(N)c2c1` [Ethacridine lactate monohydrate], the total cell number was -15.2. For `CCCCCCCCCC(=O)NC(CN1CCOCC1)[C@H](O)c1ccccc1` (mixture of isomers), the total cell number was -1.55. `CN(C)c1ccc(O)c2c1C[C@H]1C[C@H]3[C@H](N(C)C)C(O)=C(C(N)=O)C(=O)[C@@]3(O)C(O)=C1C2=O` [Minocycline hydrochloride] displayed a total cell number of -1.32. For `CC(Cc1ccc(O)c(O)c1)(NN)C(=O)O` (stereo not drawn) [S-(-)-Carbidopa], the total cell number was -1.61.

`C[N+](C)(C)CCOC(=O)CCC(=O)OCC[N+](C)(C)C` [Succinylcholine chloride] had a total cell number of -0.486. Turning to `C[N+](C)(C)CCOC(=O)CCC(=O)OCC[N+](C)(C)C` [Succinylcholine Chloride Dihydrate], the total cell number amounted to 0.679. As for `CCN1CCc2nc(N)oc2CC1` [B-HT 933 dihydrochloride], the figure is 0.337.

Take `COc1cc(C(C)=O)ccc1O` [Apocynin]: the total cell number was -0.661.

Compound `C[C@H](NC(=O)C(=O)Nc1ccccc1C(C)(C)C)C(=O)N[C@@H](CC(=O)O)C(=O)COc1c(F)c(F)cc(F)c1F` [Emricasan] yielded a total cell number of 7.61. `O=C1CCCC(=O)C1C(=O)c1ccc(C(F)(F)F)cc1[N+](=O)[O-]` [Nitisinone] gave a total cell number of -0.917.

`CC[C@H](C)C[C@H](C)CCCCCCCCC(=O)N[C@H]1C[C@@H](O)[C@@H](NCCN)NC(=O)[C@@H]2[C@@H](O)CCN2C(=O)[C@H]([C@H](O)CCN)NC(=O)[C@H]([C@H](O)[C@@H](O)c2ccc(O)cc2)NC(=O)[C@@H]2C[C@@H](O)CN2C(=O)[C@H]([C@@H](C)O)NC1=O` [Caspofungin Acetate] had a total cell number of -1.49.

The compound `Nc1ncnc2n[nH]c(Nc3ccc(F)cc3)c12` came in with a total cell number of -5.75. Compound `CNC(=O)CN(CCN(CCN(CC(=O)[O-])CC(=O)NC)CC(=O)[O-])CC(=O)[O-].[Gd+3]` [Gadodiamide] gave a total cell number of -14.9. `CN(C)Cc1ccc(S(=O)(=O)n2ccc(/C=C/C(=O)NO)c2)cc1` [Resminostat] displayed a total cell number of -4.82. Turning to `c1ccc(CN(CC2=NCCN2)c2ccccc2)cc1` [Antazoline HCl], the total cell number came out at 0.133. The compound `Clc1ccc(N2CCN(Cc3cc4ccccn4n3)CC2)cc1` returned a total cell number of -1.15. For `O=C(O)C1=CCCN(CCON=C(c2ccccc2)c2ccccc2)C1` [NO-711 hydrochloride] the value was -1.32; for `CN(C)CC/C=C1/c2ccccc2COc2ccc(CC(=O)O)cc21` [Olopatadine HCl], 0.218. With `CNC(=N)NCCC[C@H](N)C(=O)O` [NG-Monomethyl-L-arginine acetate], the total cell number was -2.17.

For the compound `CNC(=O)c1ccc(C)c(-n2c(C)cc(OCc3ccc(F)cc3F)c(Br)c2=O)c1`, the total cell number is -0.876.

(Values after the supplement of paper PMC6135742.)
